Data published in US20250381289A1 (Genmab, published 2025).

Tests used:
[1] = target: T1, cMET on EGFR and cMET co-expressed tumor cell lines (UniProt P08581); assay: flow cytometry, SW620 cells (named among the EGFR and cMET co-expressing lines; both arms contribute)
T1 construct: whole, on cells

[2] = target: T2, EGFR on EGFR and cMET co-expressed tumor cell lines (UniProt P00533); assay: as above
T2 construct: whole, on cells

[3] = target: T1, cMET on EGFR and cMET co-expressed …; assay: flow cytometry, HT-29 cells (co-express EGFR and cMET; both arms contribute)
[4] = target: T2, EGFR on EGFR and cMET co-expressed …; assay: as above
[5] = target: T3, Human EGFR (human, UniProt P00533); assay: ELISA, coated human EGFR, anti-human Fc-HRP
T3 construct: recombinant protein; also called human EGFR recombinant protein

[6] = target: T4, human HER4 recombinant protein (human, UniProt Q15303 26-649, limits assumed); assay: ELISA, coated human HER4, anti-human Fc-HRP
T4 sequence (looked up): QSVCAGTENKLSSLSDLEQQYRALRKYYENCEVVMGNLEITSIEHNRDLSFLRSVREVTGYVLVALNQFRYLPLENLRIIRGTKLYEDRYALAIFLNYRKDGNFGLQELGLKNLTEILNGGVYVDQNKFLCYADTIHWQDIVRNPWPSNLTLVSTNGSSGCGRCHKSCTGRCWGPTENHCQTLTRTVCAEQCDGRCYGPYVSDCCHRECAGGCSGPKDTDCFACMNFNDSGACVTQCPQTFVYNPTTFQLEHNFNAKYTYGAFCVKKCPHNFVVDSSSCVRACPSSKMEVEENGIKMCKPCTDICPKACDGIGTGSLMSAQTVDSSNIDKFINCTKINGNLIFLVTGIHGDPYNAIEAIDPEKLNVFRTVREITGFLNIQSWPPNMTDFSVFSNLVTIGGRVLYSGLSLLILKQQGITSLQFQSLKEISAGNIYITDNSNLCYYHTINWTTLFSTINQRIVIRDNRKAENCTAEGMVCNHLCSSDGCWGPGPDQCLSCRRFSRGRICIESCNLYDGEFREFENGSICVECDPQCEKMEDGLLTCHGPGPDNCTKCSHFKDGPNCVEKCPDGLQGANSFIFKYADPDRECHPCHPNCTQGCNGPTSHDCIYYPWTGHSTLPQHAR

[7] = target: human HER3 recombinant protein (human, UniProt P21860 in part); assay: ELISA, coated human HER3, anti-human Fc-HRP
[8] = target: T5, human Sema3A recombinant protein (human, UniProt Q14563 21-771, limits assumed); assay: ELISA, coated human Sema3A, anti-human Fc-HRP
T5 sequence (looked up): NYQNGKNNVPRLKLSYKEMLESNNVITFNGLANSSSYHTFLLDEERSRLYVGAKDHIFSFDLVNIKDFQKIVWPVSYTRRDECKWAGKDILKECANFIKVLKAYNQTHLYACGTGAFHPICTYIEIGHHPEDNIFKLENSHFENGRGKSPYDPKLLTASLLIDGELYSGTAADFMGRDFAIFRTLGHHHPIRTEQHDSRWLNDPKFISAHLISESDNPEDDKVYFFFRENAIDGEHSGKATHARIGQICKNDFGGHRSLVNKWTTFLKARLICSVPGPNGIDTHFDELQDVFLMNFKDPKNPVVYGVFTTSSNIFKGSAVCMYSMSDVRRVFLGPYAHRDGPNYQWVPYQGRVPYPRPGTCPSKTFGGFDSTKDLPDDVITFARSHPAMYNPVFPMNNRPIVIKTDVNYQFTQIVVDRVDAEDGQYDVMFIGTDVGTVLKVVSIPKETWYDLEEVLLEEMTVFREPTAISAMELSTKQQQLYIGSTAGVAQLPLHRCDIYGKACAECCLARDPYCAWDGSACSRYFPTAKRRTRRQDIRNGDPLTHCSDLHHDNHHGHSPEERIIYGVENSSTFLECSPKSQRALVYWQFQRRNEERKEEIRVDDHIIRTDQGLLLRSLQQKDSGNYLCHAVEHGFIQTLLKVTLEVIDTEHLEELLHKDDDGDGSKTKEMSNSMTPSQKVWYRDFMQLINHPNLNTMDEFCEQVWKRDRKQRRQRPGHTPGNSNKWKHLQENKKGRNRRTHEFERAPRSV

[9] = target: T1, cMET on EGFR and cMET co-expressed …; assay: flow cytometry, MKN-45 cells (co-express EGFR and cMET; both arms contribute)
[10] = target: T2, EGFR on EGFR and cMET co-expressed …; assay: as above
[11] = target: T6, Human cMET (human); assay: ELISA, coated human cMET, anti-human Fc-HRP
T6 construct: recombinant protein; also called human cMET recombinant protein

[12] = target: T1, cMET on EGFR and cMET co-expressed …; assay: flow cytometry, A431 cells (co-express EGFR and cMET; both arms contribute)
[13] = target: T2, EGFR on EGFR and cMET co-expressed …; assay: as above
[14] = target: T1, cMET on EGFR and cMET co-expressed …; assay: flow cytometry, CAL-27 cells (co-express EGFR and cMET; both arms contribute)
[15] = target: T2, EGFR on EGFR and cMET co-expressed …; assay: as above
[16] = target: T1, cMET on EGFR and cMET co-expressed …; assay: flow cytometry, EBC-1 cells (co-express EGFR and cMET; both arms contribute)
[17] = target: T2, EGFR on EGFR and cMET co-expressed …; assay: as above
[18] = target: T1, cMET on EGFR and cMET co-expressed …; assay: flow cytometry, SNU-5 cells (co-express EGFR and cMET; both arms contribute)
[19] = target: T2, EGFR on EGFR and cMET co-expressed …; assay: as above
[20] = target: T1, cMET on EGFR and cMET co-expressed …; assay: flow cytometry, KYSE-30 cells (co-express EGFR and cMET; both arms contribute)
[21] = target: T2, EGFR on EGFR and cMET co-expressed …; assay: as above

B1: Bsab 67-LD038 (8) (bispecific antibody, human IgG1, kappa, L234A L235A)
chain 1: AIQLTQSPESLSASVGDRVTITCRASQDISSALVWYQQKPGKAPKLLIYDASSLESGVPDRFSGSESGTDFTLTISSLQPEDFATYYCQQFNSYPLTFGGGTKVEIKRTVAAPSVFIFPPSDEQLKSGTASVVCLLNNFYPREAKVQWKVDNALQSGNSQESVTEQDSKDSTYSLSSTLTLSKADYEKHKVYACEVTHQGLSSPVTKSFNRGECGGGGSGGGGSGGGGSGGGGSGGGGSGGGGSGGGGSGGGGSQVQLVESGGGVVQPGRSLRLSCAASGFTFSTYGMHWVRQAPGQGLEWVAVIWDDGSYKYYGDSVKGRFTISRDNSKNTLYLQMNSLRAEDTAVYYCARDGITMVRGVMKDYFDYWGQGTLVTVSSASTKGPSVFPLAPSSKSTSGGTAALGCLVKDYFPEPVTVSWNSGALTSGVHTFPAVLQSSGLYSLSSVVTVPSSSLGTQTYICNVNHKPSNTKVDKKV[omitted - human IgG1 Fc with L234A L235A Y349C T366W (EU numbers)]
chain 2: DIVMTQSPDSLAVSLGERATINCKSSESVDSYANSFLHWYQQKPGQPPKLLIYRASTRESGVPDRFSGSGSGTDFTLTISSLQAEDVAVYYCQQSKEDPLTFGGGTKVEIKRTVAAPSVFIFPPSDEQLKSGTASVVCLLNNFYPREAKVQWKVDNALQSGNSQESVTEQDSKDSTYSLSSTLTLSKADYEKHKVYACEVTHQGLSSPVTKSFNRGECGGGGSGGGGSGGGGSGGGGSGGGGSGGGGSGGGGSGGGGSQVQLVQSGAEVKKPGASVKVSCKASGYIFTAYTMHWVRQAPGQGLEWMGWIKPNNGLANYAQKFQGRVTMTRDTSISTAYMELSRLRSDDTAVYYCARSEITTEFDYWGQGTLVTVSSASTKGPSVFPLAPSSKSTSGGTAALGCLVKDYFPEPVTVSWNSGALTSGVHTFPAVLQSSGLYSLSSVVTVPSSSLGTQTYICNVNHKPSNTKVDKKVEPKSCDKTHTCPPCPAPEAAGGPSVFLFPPKPKDTLMISRTPEVTCVVVDVSHEDPEVKFNWYVDGVEVHNAKTKPREEQYNSTYRVVSVLTVLHQDWLNGKEYKCKVSNKALPAPIEKTISKAKGQPREPQVYTLPPCRDELTKNQVSLSCAVKGFYPSDIAVEWESNGQPENNYKTTPPVLDSDGSFFLVSKLTVDKSRWQQGNVFSCSVMHEALHNHYTQKSLSLSPGK
modifications: LD038 drug-linker coupled after TCEP reduction; DAR 8.1 by LC-MS; sites not given
notes: also called Basb 67-LD038 (8)
[1]
  EC50 (read off the curve): ~0.9 nM
[2]
  EC50 (read off the curve): ~0.9 nM
[3]
  EC50 (read off the curve): ~2 nM
[4]
  EC50 (read off the curve): ~2 nM
[5]
  EC50 (read off the curve): ~0.5 nM
[6]
  binding result: no binding (tested: about 130 nM)
[7]
  binding result: no binding (tested: about 130 nM)
[8]
  binding result: no binding (tested: about 120 nM)
[9]
  EC50 (read off the curve): ~7 nM
[10]
  EC50 (read off the curve): ~7 nM
[11]
  EC50 (read off the curve): ~2 nM
[12]
  EC50 (read off the curve): ~4 nM
[13]
  EC50 (read off the curve): ~4 nM
[14]
  EC50 (read off the curve): ~4 nM
[15]
  EC50 (read off the curve): ~4 nM
[16]
  EC50 (read off the curve): ~3 nM
[17]
  EC50 (read off the curve): ~3 nM
[18]
  EC50 (read off the curve): ~3 nM
[19]
  EC50 (read off the curve): ~3 nM
[20]
  EC50 (read off the curve): ~6 nM
[21]
  EC50 (read off the curve): ~6 nM
